The other results are listed elsewhere or left out.

The assay deals with T1, MBP-FoxP1dN (Mus musculus, UniProt P58462 326-579).
T1 sequence: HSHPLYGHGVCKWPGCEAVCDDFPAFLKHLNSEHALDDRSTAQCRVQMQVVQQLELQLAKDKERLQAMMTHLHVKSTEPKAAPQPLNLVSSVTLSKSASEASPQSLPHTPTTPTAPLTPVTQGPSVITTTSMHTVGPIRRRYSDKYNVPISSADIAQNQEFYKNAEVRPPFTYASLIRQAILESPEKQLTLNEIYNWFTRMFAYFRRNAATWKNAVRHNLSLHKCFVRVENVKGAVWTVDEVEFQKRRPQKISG
The experiment in a line: PD-seq (MBP pull-down with sequencing); 20 mM Tris-HCl pH 7.5, 100 mM NaCl, 1.5 mM MgCl2, 0.4 uM protein, 0.1 uM dsDNA library, 30 min, room temperature, amylose pull-down; high values mean tight binding. The conditions noted are these: protein: recombinant; tags: His6-MBP; chain copies: 2; dsDNA, one strand shown. The method in brief: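 His6-MBP-tagged mouse FoxP3 or FoxP1 fragment lacking the N-terminus, expressed in E. coli, was mixed at 0.4 µM with 0.1 µM Klenow-filled double-stranded degenerate DNA library. Incubation was 30 min at room temperature in Tris pH 7.5 buffer with NaCl and MgCl2. Complexes were caught on amylose resin and washed three times; DNA was released with proteinase K, PCR-barcoded and Illumina-sequenced. Binding is reads-per-million enrichment, pull-down over input, with replicates pooled.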
With “GATGATTGTTCTCCCAGCTGATGAATTGGGCTCATCGAGTAAACAAATTTTCCTAATCTTTCTGTTCAAGCGCCATCTAC”, the binding signal is 0.827 RPM ratio (pull-down/input).

For the sequence “GATGATTGTTCTCCCAGCTGATGAATTCCCACTGTCGAGTAAACAAATTTTCCTAATCTTTCTGTTCAAGCGCCATCTAC”, the binding signal was 0.786 RPM ratio (pull-down/input).

In the case of “GATGATTGTTCTCCCAGCTGATGAATTCGAAGATTCGAGTAAACAAATTTTCCTAATCTTTCTGTTCAAGCGCCATCTAC”, the binding signal is 0.857 RPM ratio (pull-down/input). In the case of “GATGATTGTTCTCCCAGCTGATGAATTCCCAGGCTCGAGTAAACAAATTTTCCTAATCTTTCTGTTCAAGCGCCATCTAC” it was 0.756 RPM ratio (pull-down/input); in that of “GATGATTGTTCTCCCAGCTGATGAATTCGTAGAATCGAGTAAACAAATTTTCCTAATCTTTCTGTTCAAGCGCCATCTAC”, 0.926 RPM ratio (pull-down/input). For the sequence “GATGATTGTTCTCCCAGCTGATGAATTCAACACATCGAGTAAACAAATTTTCCTAATCTTTCTGTTCAAGCGCCATCTAC”, the binding signal is 1.3 RPM ratio (pull-down/input). As for “GATGATTGTTCTCCCAGCTGATGAATTGCTATACTCGAGTAAACAAATTTTCCTAATCTTTCTGTTCAAGCGCCATCTAC”, the figure is 1.08 RPM ratio (pull-down/input). Regarding “GATGATTGTTCTCCCAGCTGATGAATTTTTCACCTCGAGTAAACAAATTTTCCTAATCTTTCTGTTCAAGCGCCATCTAC”, the binding signal is 0.928 RPM ratio (pull-down/input). As for “GATGATTGTTCTCCCAGCTGATGAATTGCGTCATTCGAGTAAACAAATTTTCCTAATCTTTCTGTTCAAGCGCCATCTAC”, the figure is 1.24 RPM ratio (pull-down/input). “GATGATTGTTCTCCCAGCTGATGAATTCAATCTGTCGAGTAAACAAATTTTCCTAATCTTTCTGTTCAAGCGCCATCTAC”: the binding signal was 0.934 RPM ratio (pull-down/input).

On to “GATGATTGTTCTCCCAGCTGATGAATTCATGAGCTCGAGTAAACAAATTTTCCTAATCTTTCTGTTCAAGCGCCATCTAC”, for which the binding signal is 0.771 RPM ratio (pull-down/input). In the case of “GATGATTGTTCTCCCAGCTGATGAATTGTGATAGTCGAGTAAACAAATTTTCCTAATCTTTCTGTTCAAGCGCCATCTAC” it was 1.22 RPM ratio (pull-down/input); in that of “GATGATTGTTCTCCCAGCTGATGAATTGCTTGTCTCGAGTAAACAAATTTTCCTAATCTTTCTGTTCAAGCGCCATCTAC”, 1.17 RPM ratio (pull-down/input). Turning to “GATGATTGTTCTCCCAGCTGATGAATTCGGCATATCGAGTAAACAAATTTTCCTAATCTTTCTGTTCAAGCGCCATCTAC”, the binding signal was 0.959 RPM ratio (pull-down/input). On to “GATGATTGTTCTCCCAGCTGATGAATTTGTAAGCTCGAGTAAACAAATTTTCCTAATCTTTCTGTTCAAGCGCCATCTAC”, for which the binding signal is 1.02 RPM ratio (pull-down/input). As for “GATGATTGTTCTCCCAGCTGATGAATTAGCCTCATCGAGTAAACAAATTTTCCTAATCTTTCTGTTCAAGCGCCATCTAC”, the figure is 0.905 RPM ratio (pull-down/input). As for “GATGATTGTTCTCCCAGCTGATGAATTCGAGTGATCGAGTAAACAAATTTTCCTAATCTTTCTGTTCAAGCGCCATCTAC”, the figure is 0.94 RPM ratio (pull-down/input); as for “GATGATTGTTCTCCCAGCTGATGAATTGGAGCCTTCGAGTAAACAAATTTTCCTAATCTTTCTGTTCAAGCGCCATCTAC”, 0.786 RPM ratio (pull-down/input). Take “GATGATTGTTCTCCCAGCTGATGAATTAGCGCTATCGAGTAAACAAATTTTCCTAATCTTTCTGTTCAAGCGCCATCTAC”: the binding signal was 0.909 RPM ratio (pull-down/input). As for “GATGATTGTTCTCCCAGCTGATGAATTCTATTGTTCGAGTAAACAAATTTTCCTAATCTTTCTGTTCAAGCGCCATCTAC”, the figure is 1.99 RPM ratio (pull-down/input); as for “GATGATTGTTCTCCCAGCTGATGAATTCTAAGACTCGAGTAAACAAATTTTCCTAATCTTTCTGTTCAAGCGCCATCTAC”, 0.821 RPM ratio (pull-down/input). In the case of “GATGATTGTTCTCCCAGCTGATGAATTCAATTACTCGAGTAAACAAATTTTCCTAATCTTTCTGTTCAAGCGCCATCTAC” it was 1.08 RPM ratio (pull-down/input); in that of “GATGATTGTTCTCCCAGCTGATGAATTAAGCTGTTCGAGTAAACAAATTTTCCTAATCTTTCTGTTCAAGCGCCATCTAC”, 0.846 RPM ratio (pull-down/input). Regarding “GATGATTGTTCTCCCAGCTGATGAATTCGACCCTTCGAGTAAACAAATTTTCCTAATCTTTCTGTTCAAGCGCCATCTAC”, the binding signal was 0.81 RPM ratio (pull-down/input). In the case of “GATGATTGTTCTCCCAGCTGATGAATTACTGTTTTCGAGTAAACAAATTTTCCTAATCTTTCTGTTCAAGCGCCATCTAC” it was 2.6 RPM ratio (pull-down/input); in that of “GATGATTGTTCTCCCAGCTGATGAATTTCGTGAGTCGAGTAAACAAATTTTCCTAATCTTTCTGTTCAAGCGCCATCTAC”, 0.804 RPM ratio (pull-down/input). As for “GATGATTGTTCTCCCAGCTGATGAATTTTGCAGCTCGAGTAAACAAATTTTCCTAATCTTTCTGTTCAAGCGCCATCTAC”, the figure is 0.865 RPM ratio (pull-down/input); as for “GATGATTGTTCTCCCAGCTGATGAATTCACAGCTTCGAGTAAACAAATTTTCCTAATCTTTCTGTTCAAGCGCCATCTAC”, 0.867 RPM ratio (pull-down/input); as for “GATGATTGTTCTCCCAGCTGATGAATTCTAGGTCTCGAGTAAACAAATTTTCCTAATCTTTCTGTTCAAGCGCCATCTAC”, 0.774 RPM ratio (pull-down/input). In the case of “GATGATTGTTCTCCCAGCTGATGAATTCTTATTGTCGAGTAAACAAATTTTCCTAATCTTTCTGTTCAAGCGCCATCTAC” it was 2.49 RPM ratio (pull-down/input); in that of “GATGATTGTTCTCCCAGCTGATGAATTTAAGCCTTCGAGTAAACAAATTTTCCTAATCTTTCTGTTCAAGCGCCATCTAC”, 0.856 RPM ratio (pull-down/input). Turning to “GATGATTGTTCTCCCAGCTGATGAATTGTAACCCTCGAGTAAACAAATTTTCCTAATCTTTCTGTTCAAGCGCCATCTAC”, the binding signal is 0.91 RPM ratio (pull-down/input).

Values taken from publication PMC12820563, “FoxP3 forms a head-to-head dimer in vivo and stabilizes its multimerization on adjacent microsatellites”.
